From the BET-seq Pho4 binding data (Le et al. 2018)
This is one part of the list. The energies were worked out here from pooled read counts, against the library average; single values are noisy.

These sequences were tested against T1, Pho4 (S. cerevisiae) (UniProt P07270) (assay: relative binding free energy (BET-seq); higher = weaker binding). Conditions: reference: library average.
T1 sequence: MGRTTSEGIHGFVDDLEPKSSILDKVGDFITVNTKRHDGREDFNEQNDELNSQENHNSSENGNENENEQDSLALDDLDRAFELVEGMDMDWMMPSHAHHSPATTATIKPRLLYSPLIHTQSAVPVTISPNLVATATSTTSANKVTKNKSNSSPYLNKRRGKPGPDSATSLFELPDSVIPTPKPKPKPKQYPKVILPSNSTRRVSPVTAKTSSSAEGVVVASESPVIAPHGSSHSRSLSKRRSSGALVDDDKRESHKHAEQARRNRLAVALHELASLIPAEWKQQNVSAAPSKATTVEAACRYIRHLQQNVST

Sequence	relative binding free energy
TGGGTCACGTGCTGAA	0.08 kcal/mol
TATATCACGTGTCTTG	0.23 kcal/mol
TTGAGCACGTGTCGTA	-0.11 kcal/mol
AGGCTCACGTGGTTTG	0.05 kcal/mol
AAAGTCACGTGGTATC	0.13 kcal/mol
CTGTACACGTGATGTT	0.24 kcal/mol
TGGTACACGTGAAGGC	0.45 kcal/mol
TCGGACACGTGATGTG	0.21 kcal/mol
TGGTACACGTGTTCTA	0.05 kcal/mol
GGTAGCACGTGTGGCC	0.07 kcal/mol
CAAGTCACGTGGGTAT	0.02 kcal/mol
CGTTGCACGTGGGAAG	-0.03 kcal/mol
TTTATCACGTGATTGT	0.3 kcal/mol
TAGGACACGTGCGGGT	-0.03 kcal/mol
TTCGTCACGTGGGATT	-0.06 kcal/mol
TGTTGCACGTGGAATG	0.09 kcal/mol
GAGGGCACGTGTGGTT	0.01 kcal/mol
TTGGCCACGTGGCTTT	-0.14 kcal/mol
TTGAGCACGTGACGAG	0.1 kcal/mol
GTGGTCACGTGGAAGT	0.19 kcal/mol
ACGATCACGTGGTTGT	0.13 kcal/mol

Sequence	relative binding free energy
TGGCACACGTGGTTAT	-0.04 kcal/mol
TGCGGCACGTGGAGTA	-0.09 kcal/mol
ATGTTCACGTGCATAG	0.19 kcal/mol
TAAGGCACGTGTATTG	-0.09 kcal/mol
ATTTACACGTGTTAAA	0.03 kcal/mol
GGGCGCACGTGATGGG	0.2 kcal/mol
GAAGGCACGTGCTGGT	-0.14 kcal/mol
GTATTCACGTGCTGTG	0.41 kcal/mol
GGTGTCACGTGTATTA	0.11 kcal/mol
GGGAGCACGTGTGTAC	0.03 kcal/mol
TTTATCACGTGGCGAG	-0.08 kcal/mol
ATATACACGTGATTTG	0.16 kcal/mol
TAATTCACGTGGTAAA	0.11 kcal/mol
TGGTTCACGTGCCGTA	0.32 kcal/mol
GTATTCACGTGGCCTG	0.25 kcal/mol
TGTAGCACGTGGAGGT	-0.06 kcal/mol
GAAGGCACGTGGTTAG	-0.14 kcal/mol
TATTACACGTGTCAGG	0.13 kcal/mol
CTTTTCACGTGGGATG	0.14 kcal/mol
AGGCCCACGTGGGGTA	-0.17 kcal/mol
GGGAGCACGTGCGTGC	-0.09 kcal/mol

Sequence	relative binding free energy
ATGTTCACGTGGAGAT	0.14 kcal/mol
GATGTCACGTGATTTA	0.3 kcal/mol
ATCTGCACGTGTTTTT	-0.07 kcal/mol
CGTGTCACGTGCGTTT	0.08 kcal/mol
GGAGTCACGTGGACGT	0.17 kcal/mol
TTGGTCACGTGCGGTG	0.06 kcal/mol
ACGGACACGTGGAGGG	-0.07 kcal/mol
TATATCACGTGATGAA	0.29 kcal/mol
TGGGTCACGTGAATGC	0.25 kcal/mol
GGAGACACGTGCTGGG	-0.08 kcal/mol
GCTATCACGTGAAGTT	0.5 kcal/mol
GTAGGCACGTGTTTGA	-0.07 kcal/mol
GGCGTCACGTGTTGAA	0.18 kcal/mol
GATGGCACGTGAAGGG	0.16 kcal/mol
TTGGCCACGTGGATTG	-0.02 kcal/mol
CATTGCACGTGTTAGT	0.05 kcal/mol
AAGTTCACGTGGAGGA	0.31 kcal/mol
TTGGTCACGTGTTAAA	0.06 kcal/mol
AGGTTCACGTGTTAGT	0.26 kcal/mol
TAAGTCACGTGGGCGG	-0.03 kcal/mol
GGAATCACGTGTGGCG	0.21 kcal/mol
